In PubChem BioAssay AID1476 (National Center for Advancing Translational Sciences (NCATS), 2009):
Where “and” joins values, the source holds several entries; their conditions need not be identical. Equal entries are not always repeated. Among all 200,000 compounds or so, about 4,500 (2.2%) were called active. Inconclusive means that the source gave no clear call. Such entries were picked first, then a sample of the others. Calls come from the whole dose curve; as a rule, active = well fitted inhibition curve with a large enough effect; inconclusive = small, poorly fitted or top-dose-only effect, or effect the other way; inactive = flat fitted curve, though single readings scatter. Potencies beside an inconclusive call are fits to weak or partial responses and may not hold up.

Each molecule was assayed against Cruzipain (Trypanosoma cruzi) (UniProt P25779) (assay: qHTS Assay for Promiscuous and Specific Inhibitors of Cruzain (without detergent)). Details: purified cruzain, Z-FR-AMC fluorescence, no detergent.
In short: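 Purified cruzain at 1.5 nM, pre-incubated 15 min with compound at room temperature in 100 mM sodium acetate pH 5.5, 5 mM DTT, 0.00005% Triton X-100. Reaction started with 2 uM Z-FR-AMC; AMC fluorescence increase over 60 s gives rate.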
Note: nearly all actives have a fitted effect of over 40% in size.
Potency is the fitted concentration of half-maximal effect; tags give direction and shape of the fitted curve.
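Throughout, for max response, negative = inhibition: plate controls were enzyme without inhibitor for no effect and buffer without enzyme for full effect.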

UniProt P25779, sequence (P25779 whole entry, looked up): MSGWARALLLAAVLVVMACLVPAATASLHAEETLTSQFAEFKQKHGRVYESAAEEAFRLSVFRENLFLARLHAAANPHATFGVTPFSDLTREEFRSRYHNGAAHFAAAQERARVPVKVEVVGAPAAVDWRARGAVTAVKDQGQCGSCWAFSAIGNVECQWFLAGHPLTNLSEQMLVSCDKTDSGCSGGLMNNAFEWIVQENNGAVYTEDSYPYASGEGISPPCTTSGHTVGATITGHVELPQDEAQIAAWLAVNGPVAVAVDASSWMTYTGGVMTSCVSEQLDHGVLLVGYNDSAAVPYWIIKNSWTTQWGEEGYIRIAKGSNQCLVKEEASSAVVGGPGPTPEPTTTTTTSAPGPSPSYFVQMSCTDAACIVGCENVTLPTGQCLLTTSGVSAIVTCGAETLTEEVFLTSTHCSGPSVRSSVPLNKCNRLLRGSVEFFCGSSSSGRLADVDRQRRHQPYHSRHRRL

SMILES	Potency	max response, negative = inhibition
COC(=O)[C@@]1(Cc2ccc(F)cc2)[C@H]2c3cc(C(=O)N(C)C)n(Cc4ccc(OC)c(OC)c4)c3C[C@H]2CN1C(=O)c1ccccc1	inconclusive: 20 µM [activator, partial curve] and inconclusive: 3.98 µM [activator, full curve]	–
CCOC(=O)c1c(C)n(Cc2ccco2)c2c1cc(O)c1ccccc12	active: 25.1 µM	–
Cc1cc(NC(=O)C2CCCN(S(=O)(=O)c3ccc(Br)s3)C2)ccc1Br (configuration not stated)	inconclusive: 15.8 µM [inhibitor, single point]	–
CCN(CC)Cc1ccc(Nc2ccnc3cc(Cl)ccc23)cc1O	inconclusive: 31.6 µM [inhibitor, single point]	–
CN1CCN(CCC(=O)Nc2ccc(OCc3ccccc3)cc2)CC1	inconclusive: 6.31 µM [inhibitor, single point]	–
O=C(CCCCCn1c(=S)[nH]c2ccc(N3CCOCC3)cc2c1=O)NCc1ccccc1	inconclusive: 25.1 µM [inhibitor, single point]	–
c1ccc(-n2ncc3c(N4CCN(c5ccccn5)CC4)nc(N4CCCCCC4)nc32)cc1	inconclusive: 7.94 µM [inhibitor, single point]	–
Cc1ccc(CCNC(=O)CN2C(=O)COc3ccc(S(=O)(=O)N4CCC(C)CC4)cc32)cc1	inconclusive: 39.8 µM [activator, single point]	–
CCN1CCN(C(c2cccc(Cl)c2)c2c(O)cc(C)n(CCOC)c2=O)CC1 (configuration not stated)	inconclusive: 39.8 µM [activator, single point]	–
Cc1ccc(-c2nc(Nc3ccccc3)n[nH]2)cc1	inconclusive: 39.8 µM [inhibitor, single point]	–
C=CCn1c(SCC(=O)NCCOC)nc2scc(-c3ccco3)c2c1=O	inconclusive: 31.6 µM [activator, single point]	–
Cc1ccccc1-c1nc(CS(=O)CC(=O)NCCc2ccc(Cl)cc2)c(C)o1 (configuration not stated)	inconclusive: 25.1 µM [activator, partial curve]	–
O=C1CC(c2ccccc2)Cc2[nH]c(=O)c(-c3nc(-c4ccc(F)cc4)cs3)cc21 (configuration not stated)	–	inactive: 5.21%
Cc1sc(-c2cc3ccccc3oc2=O)nc1-c1ccc(Cl)cc1	–	inactive: 7.75%
COc1ccc(-c2cc(C(F)(F)F)nc(S(=O)(=O)CCC(=O)N3CCOCC3)n2)cc1	inconclusive: 10 µM [activator, single point]	–
Cc1cc(N2CCN(C(=O)c3ccco3)CC2)n2ncc(-c3ccccc3)c2n1	inconclusive: 31.6 µM [activator, single point]	–
COc1ccc(S(=O)(=O)NNC(=O)C2Cc3c(ccc4ccccc34)O2)cc1 (configuration not stated)	–	inactive: 1.51%
COc1ccc2[nH]c3c(NCc4ccco4)ncnc3c2c1	inconclusive: 12.6 µM [inhibitor, partial curve, poor fit]	–
Cc1cc(C)cc(OCC(=O)Nc2ccccc2C(=O)NCc2ccco2)c1	inconclusive: 39.8 µM [inhibitor, single point]	–
COc1ccc(CN(CCC(c2ccc(F)cc2)C2CCOC(C)(C)C2)C(=O)c2ccco2)cc1 (configuration not stated)	inconclusive: 31.6 µM [activator, single point]	–
CCOC(=O)c1sc(Nc2nc3c(OC)cccc3s2)cc1C	–	inactive: -1.97%

SMILES	Potency	max response, negative = inhibition
O=c1oc2cc(OCc3ccc(F)cc3F)ccc2cc1-c1ccc2ccccc2n1	active: 12.6 µM	–
O=c1[nH]c(=S)n(C2CC2)c(O)c1/C=N/Nc1cccc2ccccc12	inconclusive: 31.6 µM [inhibitor, single point]	–
O=C(/C=C/c1ccccc1)Nn1c(-c2cccs2)nc2ccccc2c1=O	inconclusive: 31.6 µM [inhibitor, single point]	–
Cc1ccc(NC(=O)Cn2cc(S(=O)(=O)N3CCN(c4ccccc4F)CC3)c3ccccc3c2=O)cc1F	active: 7.94 µM	–
c1ccc(-c2nnc3sc(-c4csc5c4CCCC5)nn23)cc1	inconclusive: 10 µM [inhibitor, partial curve]	–
CC(=O)Nc1ccc(S(=O)(=O)N2CCSC2c2ccc(Cl)cc2)cc1 (configuration not stated)	inconclusive: 31.6 µM [activator, single point]	–
CC(=O)OCCSc1c(-c2ccccc2)c2cc(Cl)ccc2[nH]c1=O	inconclusive: 31.6 µM [activator, single point]	–
CCS(=O)(=O)N1CCN(C(=O)COc2ccc(-c3ccccc3)cc2)CC1	inconclusive: 39.8 µM [activator, single point]	–
COc1ccc(Cc2noc(-c3ccc(OC)c(OC)c3)n2)cc1OC	inconclusive: 39.8 µM [activator, single point]	–
CCOc1ccc(Sc2cc(C(=O)NCCCOC)c3ccccc3n2)cc1	inconclusive: 39.8 µM [activator, single point]	–
O=C(CSc1ccc2ccccc2c1)Nc1nc2ccccc2[nH]1	active: 15.8 µM	–
COc1ccc(-n2cnc3sc(-c4ccccc4)cc3c2=O)cc1	inconclusive: 39.8 µM [inhibitor, single point]	–
COc1ccccc1NC(=O)CN1CCN(CC(=O)Nc2ccc(OCc3ccccc3)cc2)CC1	inconclusive: 39.8 µM [activator, single point]	–
Cc1ccc(-c2noc(-c3cccnc3NCc3ccc(Cl)cc3)n2)cc1	–	inactive: -3.19%
O=C(Nc1ccc(Cl)cc1Cl)c1ccc(-c2ccccc2)cc1	active: 25.1 µM	–
O=C(Nc1ccc(-c2nc3ccc(NC(=O)c4cccs4)cc3[nH]2)cc1)c1cccs1	active: 25.1 µM	–
CCOC(=O)c1cc(-c2ccc(C)cc2)n(CCC(=O)NCc2ccccc2)c1C	inconclusive: 31.6 µM [activator, partial curve]	–
CN(C)c1ccc(NC(=O)c2sc(SCC(=O)Nc3ccc(Br)cc3)nc2N)cc1	active: 10 µM	–
Cc1ccccc1-n1c(SCC(=O)N/N=C/c2sccc2C)nc2ccccc2c1=O	inconclusive: 31.6 µM [inhibitor, single point]	–
O=c1c2ccccc2nc(SCc2nnc(-c3ccccc3Br)o2)n1-c1ccccc1	active: 31.6 µM	–
CCCCCCCCCCCCCCCC(=O)NCC(COP(=O)([O-])OCC[N+](C)(C)C)OCC (configuration not stated)	inconclusive: 3.98 µM [activator, full curve]	–

SMILES	Potency	max response, negative = inhibition
Cc1c(C(=O)Nc2ccc(Cl)cc2)c2ccccn2c1C(=O)c1ccc([N+](=O)[O-])cc1	inconclusive: 39.8 µM [inhibitor, single point]	–
Cc1ccc(S(=O)(=O)/C(C#N)=C/c2c(N3CC(C)OC(C)C3)nc3ccccn3c2=O)cc1 (configuration not stated)	inconclusive: 31.6 µM [activator, single point]	–
COc1ccccc1NS(=O)(=O)c1cc(NC(=O)c2ccc3ccccc3n2)ccc1Cl	inconclusive: 39.8 µM [inhibitor, single point]	–
COc1ccc(N/C=C/C(=O)c2ccc3c(c2)OCO3)cc1OC	inconclusive: 39.8 µM [activator, single point]	–
CCn1c(SCCOc2ccc(OC)cc2)nnc1C(CO)NC(=O)c1ccc(OC)cc1 (configuration not stated)	inconclusive: 31.6 µM [activator, single point]	–
Cc1ccc2c(CSc3nnc(C4CC4)n3N)cc(=O)oc2c1C	inconclusive: 31.6 µM [inhibitor, single point]	–
CCOC(=O)c1cc(C(=O)OCC)c2cc(Br)ccc2n1	inconclusive: 31.6 µM [activator, single point]	–
Cn1c(=O)n(C)c2cc(NS(=O)(=O)c3ccc4c(c3)CCCC4)ccc21	inconclusive: 25.1 µM [activator, single point]	–
CCC(C)(C)n1nnnc1C(c1cccnc1)N1CCN(c2cccc(C(F)(F)F)c2)CC1 (configuration not stated)	inconclusive: 39.8 µM [activator, single point]	–
CCOC(=O)/C=c1\s/c(=C\c2ccc(C(F)(F)F)cc2)c(=O)n1CC(=O)NCc1ccco1	inconclusive: 25.1 µM [inhibitor, single point]	–
CS(=O)(=O)N(Cc1ccc(Cl)cc1)c1ccc(C(=O)NCCSCc2ccco2)cc1	inconclusive: 25.1 µM [activator, single point]	–
COc1ccc(C2CC(c3cccs3)=NN2C(=O)CSc2nc3ccccc3s2)cc1 (configuration not stated)	inconclusive: 39.8 µM [inhibitor, single point]	–
C=CCNC(=O)NC(=O)COC(=O)CCCSc1nc2ccccc2[nH]1	–	inactive: -4.18%
CCC(CC)NC(=O)COC(=O)c1ccc(OCc2ccc(C(C)=O)cc2OC)c(OC)c1	inconclusive: 15.8 µM [activator, partial curve]	–
Cc1ccc(-c2cn3cccnc3n2)cc1NC(=O)c1ccc(Br)o1	inconclusive: 15.8 µM [activator, partial curve]	–
O=S(=O)(Nc1nc(CN2CCOCC2)nc2sc3c(c12)CCCC3)c1cc(F)ccc1F	inconclusive: 31.6 µM [activator, single point]	–
N#CC(C(=O)Nc1ccc(Cl)cc1)=C1Nc2ccccc2N1	inconclusive: 31.6 µM [inhibitor, single point]	–
COc1ccc(C2CC(c3ccc(Cl)cc3)=NN2C(=O)c2cccc([N+](=O)[O-])c2)cc1 (configuration not stated)	inconclusive: 39.8 µM [inhibitor, single point]	–
Cc1cccc(-c2noc(CN(C(=O)COc3ccc(C(C)C)cc3)C(C)C)n2)c1	–	inactive: 5.48%
CCOC(=O)c1c(C)n(-c2ccccc2)c2ccc(OC(=O)c3ccccc3)cc12	inconclusive: 10 µM [inhibitor, partial curve]	–
